Source: PubChem BioAssay AID624296 (National Center for Advancing Translational Sciences (NCATS), 2012)
Out of some 350,000 compounds screened, about 9,900 (2.8%) were called active. Inconclusive means that the source gave no clear call. Such entries were picked first, then a sample of the others. Calls come from the whole dose curve; as a rule, active = well fitted activation curve with a large enough effect; inconclusive = small, poorly fitted or top-dose-only effect; inactive = no such curve, though single readings can be large or run the other way. No potency is given beside an inconclusive call; the fits are too rough.

Assay: A quantitative high throughput screen for small molecules that induce DNA re-replication in MCF 10a normal breast cells. For activity, positive = re-replication: % of control where 0% means no effect. Note: nearly all actives have a fitted effect of over 50% in size.
Settings: MCF 10A DNA re-replication, Hoechst nuclear intensity, 48 h; activity, positive = re-replication: at 46.1 µM (top of the series)
Potency is the fitted concentration of half-maximal effect; tags give direction and shape of the fitted curve.

| SMILES | Potency | activity, positive = re-replication |
| --- | --- | --- |
| Clc1c(Cl)c(Cl)c2n[nH]nc2c1Cl | inconclusive [activator, partial curve] |  |
| Cc1ccccc1-n1c(SCC(=O)NCc2cccs2)nnc1-c1ccncc1 | inconclusive [activator, single point] |  |
| CCOc1ccc(C(=O)OCC(=O)N2CCCC2)cc1OCC |  | inactive: -11.9% |
| C=CCn1c(=O)c2c(nc3n2CCCN3CCc2ccccc2)n(C)c1=O |  | inactive: 22.2% |
| Cc1c(Cl)cccc1N=Cc1ccc([N+](=O)[O-])s1 | inconclusive [activator, single point] |  |
| Cc1ccc(Nc2nc(N)nc(CCl)n2)cc1 | inconclusive [activator, single point] |  |
| COc1ccc(-c2sc3ccc(N4CCOCC4)cc3c2-c2ccc(O)cc2)cc1 | inconclusive [activator, single point] |  |
| CCn1c(SCC(=O)Nc2nc(-c3ccccc3)cs2)nnc1-c1ccccc1 |  | inactive: 2.84% |
| CCCN1C2CCCC1CC(NC(=S)NCCCOCC)C2 (centres undefined) |  | inactive: -0.546% |
| COc1cc(C)nc(N2CCCC(C(=O)NC3CCC(C)CC3)C2)n1 (centres undefined) | inconclusive [activator, single point] |  |
| Cc1ccc(Cc2c(C)nc3nc(SCC(=O)NCCN4CCOCC4)nn3c2C)cc1 | inconclusive [activator, partial curve, poor fit] |  |
| N#CCn1c2ccccc2c2nc3ccccc3nc21 | inconclusive [activator, single point] |  |
| Cn1c(Cn2nnc(-c3ccccc3)n2)nnc1SCc1ccccc1Cl |  | inactive: -0.29% |
| O=C(OCc1csc(-c2ccccc2)n1)c1ccc(O)cc1 | inconclusive [activator, full curve, poor fit] |  |
| COc1ccc(NS(=O)(=O)c2cc(NC(=O)c3ccc(=O)[nH]c3)ccc2N2CCCC2)cc1 | inconclusive [activator, partial curve, poor fit] |  |
| O=C(Nc1ccc(Cl)c(S(=O)(=O)N2CCOCC2)c1)c1ccc2c(c1)OCO2 | inconclusive [activator, partial curve, poor fit] |  |
| CC1CCN(c2ccccc2NC(=O)c2ccc(F)cc2)CC1 | inconclusive [activator, partial curve, poor fit] |  |
| COC(=O)c1sccc1NC(=O)c1ccoc1C | inconclusive [activator, single point] |  |
| COc1ccc(S(=O)(=O)n2ccc(C(C)Oc3ccc(-c4ccccc4)c(F)c3)n2)cc1 (centres undefined) | inconclusive [activator, partial curve, poor fit] |  |
